Positions count from the first letter of the chain named. This is one part of the list.

B1: AUCGUGG (DNA:RNA)
RNA: GGGAGACCGGAAUUCAGAUUGUCCAUCGUGGUUAAAUCCCGUCGUAGCCACCA
DNA 1: CAATCTGAATTCCGGTCTCCC
DNA 2: TGGTGGCTACGACGGGATT
B2: GAAAAUG (DNA:RNA)
RNA: B1 RNA with A25G, U26A, C27A, G28A, U29A, G30U
DNA 1: CAATCTGAATTCCGGTCTCCC
DNA 2: TGGTGGCTACGACGGGATT
B3: CGCGGAU (DNA:RNA)
RNA: B1 RNA with A25C, U26G, U29G, G30A, G31U
DNA 1: CAATCTGAATTCCGGTCTCCC
DNA 2: TGGTGGCTACGACGGGATT
B4: GGGCAUG (DNA:RNA)
RNA: B1 RNA with A25G, U26G, C27G, G28C, U29A, G30U
DNA 1: CAATCTGAATTCCGGTCTCCC
DNA 2: TGGTGGCTACGACGGGATT
B5: GGCUGUA (DNA:RNA)
RNA: B1 RNA with A25G, U26G, G28U, U29G, G30U, G31A
DNA 1: CAATCTGAATTCCGGTCTCCC
DNA 2: TGGTGGCTACGACGGGATT
B6: GCCCGGA (DNA:RNA)
RNA: B1 RNA with A25G, U26C, G28C, U29G, G31A
DNA 1: CAATCTGAATTCCGGTCTCCC
DNA 2: TGGTGGCTACGACGGGATT
B7: UGAGGUC (DNA:RNA)
RNA: B1 RNA with A25U, U26G, C27A, U29G, G30U, G31C
DNA 1: CAATCTGAATTCCGGTCTCCC
DNA 2: TGGTGGCTACGACGGGATT
B8: GUAGCCU (DNA:RNA)
RNA: B1 RNA with A25G, C27A, U29C, G30C, G31U
DNA 1: CAATCTGAATTCCGGTCTCCC
DNA 2: TGGTGGCTACGACGGGATT
B9: GUACGGU (DNA:RNA)
RNA: B1 RNA with A25G, C27A, G28C, U29G, G31U
DNA 1: CAATCTGAATTCCGGTCTCCC
DNA 2: TGGTGGCTACGACGGGATT

For the assay, the target named is T1, RBFOX1 RRM RbFoxmut (Fox-RRM*) (Homo sapiens, UniProt Q9NWB1 109-208, R118D;E147R;N151S;E152T).
T1 sequence: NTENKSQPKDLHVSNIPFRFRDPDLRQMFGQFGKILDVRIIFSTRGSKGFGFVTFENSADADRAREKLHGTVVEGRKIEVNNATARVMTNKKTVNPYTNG
In words: EMSA; HiTS-Eq, 1 nM pool, 10 min; buffer printed only for the single-RNA assays: 10 mM Tris pH 7.5, 150 mM NaCl, 3.4 mM EDTA, 0.001% NP-40, 30 C. Particulars: tags: His6 N-terminal (pET28a); label: 5' 32P. The gist of the method:
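Purified RbFox RRM (wild type or mutant) was equilibrated for 10 min in 50 µL with 1 nM of a 5′-radiolabelled pool of RNA with 7 randomized nucleotides, its flanks annealed to DNA oligonucleotides, across increasing protein concentrations. Free RNA was separated by 8% native PAGE, excised, reverse-transcribed, PCR-barcoded and sequenced on an Illumina HiSeq 2500. Relative association constants came from read-count changes of each variant against the control reaction, normalised to the cognate motif.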
A general note: Mobility shift assays separate free from complexed probe on a gel.
For the molecule B1, the binding signal is 0.124 KA relative to UGCAUGU.

As for B2, the binding signal is 0.1 KA relative to UGCAUGU.

For the molecule B3, the binding signal was 0.0894 KA relative to UGCAUGU. For the molecule B4, the binding signal is 1.23 KA relative to UGCAUGU. The same measure for B5: 0.184 KA relative to UGCAUGU; for B6: 0.062 KA relative to UGCAUGU; for B7: 0.109 KA relative to UGCAUGU. Next, B8: 0.0936 KA relative to UGCAUGU. The same measure for B9: 0.132 KA relative to UGCAUGU.

For the origin of these results see article PMC9911399, “Two distinct binding modes provide the RNA-binding protein RbFox with extraordinary sequence specificity”.
